In general, % Inhibition refers to the drop in the measured response relative to a control, in per cent.

Screen size: about 150,000 compounds; about 540 (0.36%) showed an effect of 50% or more. Some of the results follow.

This experiment relates to Plasmodium falciparum. Description: Primary screen in NF54 nanoGlo assay, in single point, at 2uM, 72h; a lower Z score goes with more inhibition. The class given is functional, Erythrocyte. The note with it: timepoint 72 hour.
As to `O=C(O)[C@H]1CCCN1Cc1ccc2cccc(Cl)c2n1`, the “% Inhibition” value was found to be 4% and the Z score was -0.53.
For the compound `Cc1cc(NCc2noc(C3CCC3)n2)nc(Nc2cccc(O)c2)n1`, the “% Inhibition” value is reported as -16% and the Z score came to 1.83.
As for `CCN(C(=O)[C@H]1CCCN(C(C)=O)C1)c1ccc(C(F)(F)F)cc1`, the “% Inhibition” value was -4% and the Z score is 0.82.
As to `O=S(=O)(c1ccccc1)N1CCN(S(=O)(=O)c2ccccc2)C1`, the “% Inhibition” value is given as -3% and the Z score stood at 0.54.
On to `COC[C@H](Nc1ccc(OC)nc1)C1CC1`, for which the “% Inhibition” value is on record as -1% and the Z score worked out at 0.14.
For the compound `O=C(NC[C@H]1CC(=O)N(C2CCCC2)C1)c1cccc(OCc2cccc(F)c2)c1`, the “% Inhibition” value is reported as -15% and the Z score is 1.95.
The corresponding values for `CCC(NS(=O)(=O)C1CCOC1C)c1nc(-c2ccccc2)c[nH]1` (stereo unspecified) are 3% and -0.32.
Regarding `COc1ccc(-c2nc(NCc3ccccc3OC)[nH]c(=O)c2C#N)cc1`, the “% Inhibition” value was -11% and the Z score stood at 2.02.
Regarding `C[C@H](NCc1cnc2ccccn12)c1ccccn1`, the “% Inhibition” value is given as -10% and the Z score was 1.01.
In the case of `Cc1nc(C2=C(O)CN(c3ccc4c(c3)OCCO4)C2=N)sc1C`, the “% Inhibition” value amounted to 3% and the Z score was -0.42.
For the compound `COc1ccc(CNc2ccc(C(=O)N3CCCCC3)cc2S(=O)(=O)Nc2cccc(OC)c2)cc1`, the “% Inhibition” value stood at 3% and the Z score is listed as -0.33.
With `Cc1cc(=O)[nH]c(NCCNC(=O)C2(C)CCC(C(=O)N(C)C)C2(C)C)n1` (stereo unspecified), the “% Inhibition” value was -8% and the Z score is listed as 1.18.
For `Cn1c(=O)c2c(ncn2Cc2csc(-c3ccco3)n2)n(C)c1=O`, in that order: -8% and 1.41.
As for `CC(C)c1csc(C2CCCN(C(C)c3nnnn3C)C2)n1` (stereo unspecified), the “% Inhibition” value was 0% and the Z score was found to be 0.04.
The corresponding values for `COc1c(C)cnc(CNS(=O)(=O)N(C)C2CCCCC2)c1C` are -8% and 0.89.
Regarding `O=C1C[C@H]2CC[C@@H](CN1)N2C(=O)CN1CCOC1=O`, the “% Inhibition” value was -3% and the Z score was 0.5.
The corresponding values for `O=C1N[C@H](C(=O)NCCCOC2CCCC2)Cc2ccccc21` are -1% and 0.19.
Regarding `COC(=O)C1(NC(=O)c2ccc3c(c2)OCO3)CCCCC1`, the “% Inhibition” value is given as -17% and the Z score is on record as 3.2.
Regarding `NC(=NCc1c(F)cc(Br)cc1F)N1CCOCC1`, the “% Inhibition” value was determined as 0% and the Z score is listed as -0.09.
In the case of `CC(=O)N1CCN(C(=O)c2coc(CN(Cc3ccc(F)cc3)Cc3cc(C)ccc3C)n2)CC1`, the “% Inhibition” value is recorded as -1% and the Z score came out at 0.11.
On to `CN1CC(=O)N[C@@H]2CN(C(=O)c3ccncc3)CC[C@@H]2OCc2cccc(c2)Oc2cccc(c2)CCC1=O`, for which the “% Inhibition” value was 4% and the Z score is -0.55.
In the case of `CC(=O)c1cc(CN(C)C[C@H]2CCN(c3ccccc3)C2)n(C)c1`, the “% Inhibition” value was -20% and the Z score was 2.96.
Turning to `COc1ccc(O[C@H]2CCN(C(=O)c3cnn4c3OCCC4)C2)nn1`, the “% Inhibition” value is reported as -5% and the Z score came out at 0.52.
For the compound `O=C(N[C@H]1CCOC[C@@H]1O)c1cccc2ccccc12`, the “% Inhibition” value is reported as -5% and the Z score came out at 0.88.
Regarding `Cc1ccc(-c2cc(C(=O)Nc3ncccc3Cl)c3ccccc3n2)s1`, the “% Inhibition” value turned out to be 3% and the Z score is given as -0.34.
For the compound `O=C(NCCN1CCCC[C@@H]1CO)c1cccc(-c2nccs2)c1`, the “% Inhibition” value is given as -7% and the Z score is 0.83.
For `CC(C)(Nc1ccc2c(c1)OCCO2)c1nnnn1-c1ccccc1`, in that order: 1% and -0.19.
The corresponding values for `Cc1ccc(NC(=O)c2cnn(-c3ccc(C)c(Cl)c3)c2C2CCN(C(=O)OC(C)(C)C)CC2)c(C)c1` are -4% and 0.64.
`CC(C)[C@H](Cn1nccn1)NC(=O)c1cccc2ccccc12`: the “% Inhibition” value was -5% and the Z score is given as 0.77.
For `COc1ccc(-c2nc3ncccc3o2)cc1-n1cnnc1`, in that order: -21% and 2.87.
For the compound `Cc1cc(CN(C)C(=O)C2C3C(=O)N(Cc4ccc(C)c(C)c4)C[C@@]34C=C[C@@H]2O4)no1` (stereo partly specified), the “% Inhibition” value is recorded as -8% and the Z score is 1.48.
As to `Cc1noc(C)c1S(=O)(=O)N1CCCC[C@H](NC(=O)c2cnc(O)cn2)C1`, the “% Inhibition” value is -11% and the Z score is reported as 2.03.
As to `Cc1noc(C)c1[C@@H](C)CNC(=O)c1cnccc1N`, the “% Inhibition” value is on record as -9% and the Z score was 1.34.
As to `COc1ccc(CCN2C(=O)N[C@@H](CC(=O)Nc3ccccc3OC)C2=O)cc1`, the “% Inhibition” value is listed as 2% and the Z score is given as -0.2.
In the case of `CCN(CC)CC1(Nc2nc(N)nc(C)c2Cl)CC1`, the “% Inhibition” value is on record as -10% and the Z score is 1.68.
For `CCc1ncnc(N(C)Cc2cc(C)on2)c1F`, in that order: -6% and 1.08.
Turning to `CCN(Cc1nc2c(s1)C[C@@H](C)CC2)C(=O)c1ocnc1C1CC1`, the “% Inhibition” value was 22% and the Z score is on record as -2.63.
The corresponding values for `FC(F)(F)c1nnc2ccc(Oc3ccc4ccccc4c3Br)nn12` are 3% and -0.36.
With `COCCN(C)C[C@H]1C[C@H](CO)CN(C(=O)c2ccc(Cl)cc2O)C1`, the “% Inhibition” value is -8% and the Z score is given as 0.89.
`O=C1C(=O)N(CN2CCN(c3ccc(Cl)c(Cl)c3)CC2)c2ccccc21`: the “% Inhibition” value was found to be 1% and the Z score is -0.12.
Turning to `CO[C@H]1CN(c2ccnc(C(C)C)n2)C[C@H]1OC`, the “% Inhibition” value is reported as -3% and the Z score stood at 0.57.
`CCOCCCC(=O)Nc1ccc(O)c(COC(C)C)c1`: the “% Inhibition” value is reported as -6% and the Z score is 1.03.
In the case of `Cc1c(-c2ccccc2)ncn1C[C@@H](c1ccco1)N1CCCC1`, the “% Inhibition” value is -7% and the Z score is 1.05.
Consider `CCCC[C@H](NC(=O)c1cnc(-c2cccnc2)nc1)C(N)=O`, for which the “% Inhibition” value is -11% and the Z score came to 1.55.
Turning to `CN(C)C(=O)CC[C@H]1CCCN(Cc2cc3cc(F)ccc3n2C)C1`, the “% Inhibition” value was 15% and the Z score is -1.92.
For `O=C(NC[C@H]1CCCN(Cc2ccoc2)C1)C1CCOCC1`, the “% Inhibition” value is recorded as -5% and the Z score stood at 0.93.
As to `CCc1ccc(Cn2nc(CC(N)=O)nc2C2CCOCC2)cc1`, the “% Inhibition” value is reported as 7% and the Z score is on record as -0.93.
Regarding `CCc1onc(C)c1CNC(=O)Nc1cnn(-c2ccncc2)c1`, the “% Inhibition” value amounted to 15% and the Z score is reported as -2.4.
As to `CCc1ccc(CNC(=O)c2cc(COc3ccc4sc(C)nc4c3)on2)nc1`, the “% Inhibition” value is on record as -1% and the Z score is given as 0.15.
For the compound `COCC(C)(C)N(C)C(=O)c1cc(Br)cc(C(=O)O)c1`, the “% Inhibition” value is given as -9% and the Z score came out at 1.03.
As for `Cc1cnc(COc2c(F)cccc2F)o1`, the “% Inhibition” value is -4% and the Z score is recorded as 0.37.
For `Cc1cc(F)c2c(c1)CCCN2CC(=O)N1CCNC1=O`, in that order: -1% and 0.12.
Regarding `CCOc1ccccc1CNC(=O)C1CCN(c2c(NC(=O)CC)c(C)nn2-c2ccccc2)CC1`, the “% Inhibition” value is -10% and the Z score was found to be 1.71.
`COCC(=O)N[C@@H](C)Cc1ccc2c(c1)CCO2`: the “% Inhibition” value is -4% and the Z score was 0.67.
The corresponding values for `COc1cc(C(C)N2C(=O)[C@H]3CCCCN3C2=O)ccc1F` (stereo partly specified) are 8% and -0.67.
With `Cc1nc(-c2cccc(C(F)(F)F)c2)c(N)c(N2CCCC2)n1`, the “% Inhibition” value is -1% and the Z score came to 0.2.
Turning to `Nc1nnnn1CC(=O)NCc1cc(-c2ccccc2Cl)on1`, the “% Inhibition” value was -12% and the Z score was determined as 1.62.
Regarding `Cc1cncc(CNC(=O)CCC(=O)OC(C)(C)C)c1`, the “% Inhibition” value was -11% and the Z score amounted to 1.9.
With `Cc1cc(OC(F)F)c(C(=O)N2CC[C@H](Oc3ccccc3Cl)C2)s1`, the “% Inhibition” value is given as -10% and the Z score stood at 1.46.
On to `C[C@H]1Cc2cc(C(=O)N3CCOCC3)ccc2N1S(=O)(=O)c1ccccc1`, for which the “% Inhibition” value was determined as 12% and the Z score was -1.33.
On to `Cc1ncoc1C(=O)N1CCC[C@H](CN2CCN(c3ccccn3)CC2)C1`, for which the “% Inhibition” value is on record as -13% and the Z score was 1.76.
`CCn1cnc2c1CCN(C(=O)Nc1cn(C)nc1C(C)C)C2`: the “% Inhibition” value was -5% and the Z score was determined as 0.59.
As to `CC(C)Cc1ccc(S(=O)(=O)Nc2cc(C(=O)N3CCOCC3)ccc2N2CCNCC2)cc1`, the “% Inhibition” value is listed as -9% and the Z score is given as 0.88.
Consider `Cc1nc2ccc(CNC(=O)c3cnc(-c4cccs4)nc3)cc2[nH]1`, for which the “% Inhibition” value was -12% and the Z score was found to be 1.71.
As to `Cc1ccc(NS(=O)(=O)c2ccc(C(=O)Nc3ccc4[nH]c(=O)[nH]c4c3)cc2)cc1C`, the “% Inhibition” value was 2% and the Z score is listed as -0.31.
As for `O=c1c2nnsc2ncn1CCN1CCOCC1`, the “% Inhibition” value was -33% and the Z score was 3.83.
For the compound `Cc1cc2ncn(Cc3nnc(C4CCC4)n3C)c2cc1C`, the “% Inhibition” value is on record as -13% and the Z score is recorded as 1.34.
For `Cc1sc2ccccc2c1-c1cn(Cc2nnc3n2CCC3)nn1`, in that order: 6% and -0.75.
Regarding `CCn1ccc(C(=O)N[C@@H]2COCC[C@@H]2Oc2ccccc2)cc1=O`, the “% Inhibition” value is recorded as -10% and the Z score worked out at 1.57.
Regarding `CCCCn1nnnc1CN1CC(C)OCC1C` (stereo unspecified), the “% Inhibition” value was -6% and the Z score is reported as 0.59.
Regarding `Cc1[nH]c2ccccc2c1C1C(CC(=O)N(Cc2ccco2)C(C)(C)C(=O)Nc2ccc(N(C)C)cc2)C1(C)C` (stereo unspecified), the “% Inhibition” value was -35% and the Z score is 4.12.
In the case of `CCCCN(C)S(=O)(=O)N1CC[C@H](NC(=O)OC(C)(C)C)C1`, the “% Inhibition” value stood at 2% and the Z score was -0.33.
`Cc1cnc(C(=O)N2C[C@@H]3COc4ccccc4C[C@]3(CO)C2)cn1`: the “% Inhibition” value is -5% and the Z score was 0.88.
In the case of `CCc1ccc(S(=O)(=O)N2CCN(C)[C@@]3(CCNC(=O)CC3)C2)s1`, the “% Inhibition” value is given as -17% and the Z score is listed as 2.46.
In the case of `COc1ccc(N2CCN(Cc3cc(C4CC4)n[nH]3)CC2)cc1`, the “% Inhibition” value is given as -13% and the Z score was found to be 2.02.
The corresponding values for `CC(C)S(=O)(=O)N1CC[C@H](n2cc(COCC3CC3)nn2)C1` are -11% and 1.61.
Regarding `CC(C)(C)c1ncc(CN2CCOC(C3CCCO3)C2)s1` (stereo unspecified), the “% Inhibition” value was -2% and the Z score is listed as 0.43.
Consider `CCNc1cc(C(=O)NC[C@@]2(C)CCN(C(=O)c3ccnc(NCC)c3)C2)ccn1`, for which the “% Inhibition” value is reported as -6% and the Z score turned out to be 0.68.
As to `Cc1ccc(OCC(=O)Nc2noc(-c3cccc4ccccc34)n2)cc1C`, the “% Inhibition” value is -4% and the Z score is reported as 0.53.
For `CC(=O)N1CCN(C(=O)c2cc3oc(C)cc3n2CCOc2ccccc2)CC1`, the “% Inhibition” value is on record as 8% and the Z score is -1.33.
In the case of `CC(NCC(N)c1ccccc1)c1nccs1` (stereo unspecified), the “% Inhibition” value is -4% and the Z score amounted to 0.81.
On to `CCCn1nnc2cc(S(=O)(=O)N3CCCC[C@H]3C(=O)NCc3cccc(C)c3)ccc21`, for which the “% Inhibition” value was -16% and the Z score is 2.64.
As for `Fc1ccc(CNC[C@H]2Cn3c(-c4ccc5c(c4)OCCO5)cnc3CO2)cc1`, the “% Inhibition” value is -10% and the Z score was 1.26.

Source of the values: ChEMBL document CHEMBL4888484, “Replenishing the malaria drug discovery pipeline: Screening and hit evaluation of the MMV Hit Generation Library 1 (HGL1) against asexual blood stage Plasmodium falciparum ,using a nano luciferase reporter read-out” (2022).
